# The campaign covered roughly 310,000 compounds. About 14,000 (4.5%) showed an effect of 50% or more. Effects have a minus sign here. The list shows a part of the results.
# Target: human ether-à-go-go-related gene (hERG) potassium channel (human, UniProt Q12809)
# Test: primary screen, population patch clamp on CHO cells stably expressing hERG
# 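Note: peak tail current of the secondary pulse compared with the same well before compound.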
# Chain of human ether-à-go-go-related gene (hERG) potassium channel (Q12809 whole entry, looked up): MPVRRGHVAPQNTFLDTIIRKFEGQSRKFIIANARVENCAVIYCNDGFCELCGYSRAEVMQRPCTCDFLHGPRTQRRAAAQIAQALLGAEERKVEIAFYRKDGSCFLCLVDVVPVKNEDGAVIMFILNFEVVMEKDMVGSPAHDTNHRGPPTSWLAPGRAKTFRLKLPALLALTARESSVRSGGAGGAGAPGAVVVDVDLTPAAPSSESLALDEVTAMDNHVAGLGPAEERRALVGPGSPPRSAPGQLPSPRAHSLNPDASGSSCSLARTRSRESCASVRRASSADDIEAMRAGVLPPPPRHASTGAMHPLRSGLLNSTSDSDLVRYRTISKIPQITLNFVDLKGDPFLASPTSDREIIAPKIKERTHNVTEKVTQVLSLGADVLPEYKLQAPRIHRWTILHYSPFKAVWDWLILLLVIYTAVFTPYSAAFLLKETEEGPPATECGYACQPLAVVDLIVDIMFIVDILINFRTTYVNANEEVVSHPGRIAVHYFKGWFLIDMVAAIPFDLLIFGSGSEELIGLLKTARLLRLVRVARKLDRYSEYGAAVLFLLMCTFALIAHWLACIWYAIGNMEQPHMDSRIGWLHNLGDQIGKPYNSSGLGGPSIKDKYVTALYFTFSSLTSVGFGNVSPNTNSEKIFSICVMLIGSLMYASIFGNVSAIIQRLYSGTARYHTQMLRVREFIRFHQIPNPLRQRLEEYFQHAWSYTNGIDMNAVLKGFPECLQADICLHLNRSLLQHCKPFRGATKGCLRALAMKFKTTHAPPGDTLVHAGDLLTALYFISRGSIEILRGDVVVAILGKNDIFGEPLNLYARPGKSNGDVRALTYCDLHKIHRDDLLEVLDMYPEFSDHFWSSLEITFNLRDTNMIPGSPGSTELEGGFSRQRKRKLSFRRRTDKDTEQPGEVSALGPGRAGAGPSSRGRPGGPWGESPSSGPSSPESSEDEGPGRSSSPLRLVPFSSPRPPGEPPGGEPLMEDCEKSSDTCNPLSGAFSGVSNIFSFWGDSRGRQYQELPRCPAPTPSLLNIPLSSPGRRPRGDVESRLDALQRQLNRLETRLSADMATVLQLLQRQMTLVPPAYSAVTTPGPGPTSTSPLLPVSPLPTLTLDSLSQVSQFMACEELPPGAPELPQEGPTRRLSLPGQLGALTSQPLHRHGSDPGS
row,SMILES,"hERG current change (%, negative = inhibition) at 10uM [%]"
1,O=C(Cn1cc(F)c(=O)[nH]c1=O)NCCO,6.95
2,Cc1ccc(C2N=C(N)Nc3nc(=O)c4ccccc4n32)cc1 (stereo not shown),11.1
3,CCOC(=O)C1=C(O)c2ccccc2C(=O)/C1=C\c1ccc(CC)cc1,-0.249
4,O=C(N/N=C/c1ccc(Cl)c([N+](=O)[O-])c1)c1ccc2nc[nH]c2c1,22.6
5,COc1ccc(CCNC(=S)NC(=O)c2c(-c3ccccc3Cl)noc2C)cc1OC,0.196
6,CC(=O)Nc1ccc(NC(=O)C(C)NC(C)c2cccc3ccccc23)cc1 (stereo not shown),9.12
7,COc1ccc(NC(=O)OCC(C)C)cc1OC,15.9
8,Cc1ccc(S(=O)(=O)NC(C(=O)Oc2cc3oc(=O)cc(C)c3cc2Cl)C(C)C)cc1 (stereo not shown),-34.3
9,c1ccc(-c2oc3ncnc(NCCN4CCOCC4)c3c2-c2ccccc2)cc1,-21.3
10,CC1CCCN(CCCNC(=O)CCn2nc(-c3ccccc3)ccc2=O)C1 (stereo not shown),-39
11,CN(C1=C(NC(=O)c2ccccc2)C(=O)c2ccccc2C1=O)C1CCS(=O)(=O)C1 (stereo not shown),-38.2
12,Cc1cccc(-c2nnc(SCc3ccc(C#N)cc3)n2Cc2ccco2)c1,-89
13,CCOc1ccc(NC(=O)CCC(=O)c2ccc(OC)cc2)cc1,4.05
14,COc1ccc(S(=O)(=O)NC(C)C)cc1C(=O)NC1CCCCC1,6.82
15,Cc1ccnc(N2CCC(C(=O)NNC(=O)c3ccncc3)CC2)n1,10.5
16,Cc1cccc(N(CC(=O)NC2CCCCC2)C(=O)CCC(=O)Nc2ccccn2)c1,9.74
17,OCCN1CCOCCOCCN(CCO)CCN(CCO)CC1,20.6
18,[O-][n+]1onc2c1CCc1[nH]c(-c3ccccc3)nc1-2,35.7
19,O=C(Nc1cccc2cccnc12)c1ccc(Br)o1,-12.3
20,O=[N+]([O-])c1cc(Br)c(O)c(C=Nc2ccc(N3CCOCC3)cc2)c1,13.6
21,COc1cccc(N(CC(=O)NC2CCCC2)C(=O)CCC(=O)Nc2nccs2)c1,10.7
22,COc1cc([N+](=O)[O-])cc(/C=N/NC(=O)C(C)Nc2cccc3ccccc23)c1O (stereo not shown),48.9

row,SMILES,"hERG current change (%, negative = inhibition) at 10uM [%]"
1,CC(=O)N1c2ccccc2[C@@H](C)[C@@H]1C,1.84
2,COCCn1c(COC)nc2ccccc21,5.1
3,COc1cc(C#Cc2c(-c3ccccc3)n(C)c3ccccc23)cc(OC)c1,2.18
4,CCCCCCc1cc2cc(S(=O)(=O)c3ccc(F)cc3)c(=O)oc2cc1O,1.78
5,CC(=O)OC[C@H]1O[C@@H](n2ccc(=O)[nH]c2=S)C(OC(C)=O)C1OC(C)=O (stereo partly shown),-4.01
6,O=C(NNC(=O)c1cc2ccccc2oc1=O)c1ccccc1,-17
7,O=C(NCC(c1ccc(F)cc1)N1CCOCC1)c1ccccc1F (stereo not shown),19.5
8,COC(=O)c1ccccc1NC(=O)CN1CCN(C23CC4CC(CC(C4)C2)C3)CC1,-77.5
9,CCN(CC)C(=O)C1CCCN(c2ccc([N+](=O)[O-])cc2/C=N/NC(=O)c2cccc([N+](=O)[O-])c2)C1 (stereo not shown),-55.3
10,Cc1ccc(C(=O)N/C(=C\c2cccs2)C(=O)N2CCOCC2)cc1C,-19
11,CCOC(=O)N1CCN(C(=O)c2ccc3c(=O)n(CC4CCCO4)c(=S)[nH]c3c2)CC1 (stereo not shown),-5.29
12,COc1ccc(C(=O)N2CCN(c3cccc(Cl)c3)CC2)c(OC)c1,-44.6
13,COc1ccc(NC(=O)c2ccc3c(c2)NC(=O)CS3)cc1S(=O)(=O)Nc1ccc(Br)cc1,7.21
14,CN(c1ccc(C(=O)N2CCN(c3ccccc3F)CC2)cc1)S(=O)(=O)c1ccccc1,-42.4
15,CCOc1ccc(N(Cc2cc3ccc(C)cc3[nH]c2=O)S(=O)(=O)c2ccccc2)cc1,18.9
16,COCCN1C(=S)NC(c2cccc(C(F)(F)F)c2)C(C(=O)N2CCOCC2)=C1C (stereo not shown),-5.05
17,Cc1ccccc1Cn1ccc(-c2ccc3c(c2)OCO3)n1,-10.7
18,CCOc1ccc(S(=O)(=O)Nc2ccc(S(=O)(=O)N3CCOCC3)cc2)cc1,-13.3
19,COC(=O)c1ccc(NC2CC(=O)N(c3ccccc3C)C2=O)cc1 (stereo not shown),-11
20,CCN(CCC(=O)Nc1cc(OC)cc(OC)c1)Cc1ccccc1,-65.1
21,CCN(CC)C(=O)CSc1nc(C)cc(-c2cccs2)c1C#N,9.22
22,NC(=O)CC(NC(=O)c1ccccc1)C(=O)O (stereo not shown),-5.25

row,SMILES,"hERG current change (%, negative = inhibition) at 10uM [%]"
1,Cc1c(NC(=O)c2ccccc2N)cccc1C(=O)O,2.12
2,O=C(COC(=O)c1cccs1)NCCN1C(=O)CSC1=O,14
3,CC(C)C(NS(=O)(=O)c1cccc(C(F)(F)F)c1)C(=O)O (stereo not shown),6.62
4,O=C(Cc1ccccc1)NCC(=O)N1CCN(c2ccccc2F)CC1,2.37
5,CCOC(=O)Nc1c(O)ccc2oc(C)c(-c3ccccc3)c12,-1.49
6,Cc1cccc(NC(=O)c2cc([N+](=O)[O-])ccc2NCC2CCCO2)n1 (stereo not shown),-80.9
7,O=C(CSc1nncn1-c1ccccc1)Nc1ccc(F)cc1F,4.86
8,CCOC(=O)c1c(NC(=O)CSc2nncn2C)sc(C)c1C,-4.02
9,C(=C\c1nccc2c1[nH]c1ccccc12)/c1ccccc1,4.97
10,C/C(NCCN1CCOCC1)=C(\C#N)C(N)=O,3.26
11,CC(=O)N1CCc2cc(S(=O)(=O)CCC(=O)NCc3ccc(F)cc3)ccc21,-13.8
12,COc1ccc(S(=O)(=O)NCC(c2ccc3c(c2)OCO3)N2CCN(C)CC2)cc1OC (stereo not shown),-15.5
13,COc1ccc(-c2cnc(N)n2C)cc1,-11.4
14,CC(=O)C1=C(O)C(=O)N(c2ccc(Br)cc2)C1c1ccc(Br)cc1 (stereo not shown),8.61
15,Cc1ccc(CS(=O)(=O)c2nsc(C)c2C#N)cc1,10.1
16,O=C(CN1CCCSc2ccccc21)N1CCN(S(=O)(=O)c2cccc(F)c2)CC1,-21
17,O=C(CC1Sc2ccccc2NC1=O)NNC(=O)Nc1ccc(Cl)cc1 (stereo not shown),9.57
18,CCc1ccc(S(=O)(=O)Nc2nccs2)cc1,8.86
19,COC(=O)Cn1cnc2scc(-c3ccc(C)cc3)c2c1=O,7.31
20,Cc1sc2nc(CSC(C)C(=O)Nc3ccccn3)[nH]c(=O)c2c1C (stereo not shown),-5.09
21,Cc1nc(NC(=O)CSc2nncs2)c(Cl)cc1Cl,6.72
22,COc1ccccc1CCNC(=O)C1CCCO1 (stereo not shown),-3.04

row,SMILES,"hERG current change (%, negative = inhibition) at 10uM [%]"
1,CCC(C)NC(=O)C1=C(C)C(=O)OC12CCC(C)CC2 (stereo not shown),6.17
2,O=C(COc1ccccc1/C=C\c1[nH]c(=O)[nH]c(=O)c1[N+](=O)[O-])Nc1ccccc1,28.1
3,COc1ccc(-c2nnc(SCC(=O)c3cccs3)o2)c(OC)c1,17.6
4,O=C(N/N=C/c1coc2ccccc2c1=O)c1ccccc1Br,-0.324
5,CCOC(=O)Cn1c(=O)oc2cc(S(=O)(=O)Nc3ccc(N(CC)CC)cc3C)ccc21,-1.88
6,CN(CC(=O)Nc1cccc(F)c1)C(=O)c1cn2ccccc2n1,-5
7,O=C(COC(=O)/C=C/c1nc2ccccc2s1)Nc1ccccc1Oc1ccccc1,-5.33
8,Cc1ccc(S(=O)(=O)N2CCOCC2)cc1NC(=O)c1cc([N+](=O)[O-])ccc1N1CCOCC1,-67.7
9,CC(Sc1nc(C2CC2)n(-c2ccccc2)n1)C(=O)c1c(N)n(C)c(=O)n(C)c1=O (stereo not shown),-21.3
10,CN(Cc1cnn(C)c1)C(=O)c1ccc(OC2CCN(CCc3ccccc3)CC2)cc1,-42.9
11,CC(C)(C)c1cc(C(=O)NNC(=O)c2ccc(C(F)(F)F)cc2)no1,7.55
12,Cn1nc(Cc2cccc3ccccc23)c(C#N)c1N,8.28
13,CCOc1ccc(-n2c(SCc3nc(-c4cccs4)no3)nnc2-c2ccncc2)cc1,-59.7
14,CCCCn1c(N)c(N(CCOC)C(=O)c2cc(S(=O)(=O)N3CCCCC3)ccc2C)c(=O)[nH]c1=O,9.36
15,Cc1cccc(C(=O)NNC(=O)c2ccccc2O)c1,13.8
16,COC(=O)c1cc(S(=O)(=O)N2CCC(C(N)=O)CC2)oc1C,14.7
17,NNC(=O)Nc1cccc(C(F)(F)F)c1,14.4
18,O=c1cc(CCl)[nH]c2nc3ccccc3n12,-6.02
19,Cc1c(NC(=O)COc2cccc(F)c2)c(=O)n(-c2ccccc2)n1C,-0.593
20,O=C(Nc1cccnc1Cl)C1=NN(c2ccccc2)C(=O)CC1,-14
21,CC1CCN(S(=O)(=O)c2ccc(C(=O)Nc3nnc(C4CC4)o3)cc2)CC1,-9.81
22,Cc1nc(NCC2CC2)c2nnn(Cc3ccccc3)c2n1,-1.52

# — publication PMC4336329 (PLoS ONE, 2015)
